This is one part of the list. The list includes weakly bound sequences.

The assay addresses T1, MBP-FoxP3dN (UniProt Q99JB6).
T1 sequence: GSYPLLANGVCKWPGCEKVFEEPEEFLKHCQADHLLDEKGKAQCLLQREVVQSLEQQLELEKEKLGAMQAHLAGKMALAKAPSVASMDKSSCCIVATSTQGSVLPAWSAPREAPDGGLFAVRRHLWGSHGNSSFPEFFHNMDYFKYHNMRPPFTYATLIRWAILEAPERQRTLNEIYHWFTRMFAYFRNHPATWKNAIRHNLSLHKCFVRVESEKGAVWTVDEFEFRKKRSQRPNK
In words: PD-seq (MBP pull-down with sequencing). Conditions: 20 mM Tris-HCl pH 7.5, 100 mM NaCl, 1.5 mM MgCl2, 0.4 uM protein, 0.1 uM dsDNA library, 30 min, room temperature, amylose pull-down; high values mean tight binding; double strand, one strand shown.
As for “GATGATTGTTCTCCCAGCTGATGAATTGATTATTTCGAGTAAACAAATTTTCCTAATCTTTCTGTTCAAGCGCCATCTAC”, the binding signal (RPM ratio (pull-down/input)) was determined as 2.06.
For “GATGATTGTTCTCCCAGCTGATGAATTGATACAGTCGAGTAAACAAATTTTCCTAATCTTTCTGTTCAAGCGCCATCTAC”, the binding signal (RPM ratio (pull-down/input)) was found to be 1.15.
Regarding “GATGATTGTTCTCCCAGCTGATGAATTCTCATAATCGAGTAAACAAATTTTCCTAATCTTTCTGTTCAAGCGCCATCTAC”, the binding signal (RPM ratio (pull-down/input)) was 0.342.
For “GATGATTGTTCTCCCAGCTGATGAATTGCGCTTTTCGAGTAAACAAATTTTCCTAATCTTTCTGTTCAAGCGCCATCTAC”, the binding signal (RPM ratio (pull-down/input)) came to 4.02.
In the case of “GATGATTGTTCTCCCAGCTGATGAATTACTTCTATCGAGTAAACAAATTTTCCTAATCTTTCTGTTCAAGCGCCATCTAC”, the binding signal (RPM ratio (pull-down/input)) amounted to 0.347.
Consider “GATGATTGTTCTCCCAGCTGATGAATTGATATCATCGAGTAAACAAATTTTCCTAATCTTTCTGTTCAAGCGCCATCTAC”, for which the binding signal (RPM ratio (pull-down/input)) is 0.93.
Take “GATGATTGTTCTCCCAGCTGATGAATTTGAGCGTTCGAGTAAACAAATTTTCCTAATCTTTCTGTTCAAGCGCCATCTAC”: the binding signal (RPM ratio (pull-down/input)) worked out at 1.18.
For “GATGATTGTTCTCCCAGCTGATGAATTGTCGGGGTCGAGTAAACAAATTTTCCTAATCTTTCTGTTCAAGCGCCATCTAC” the value was 0.281.
For “GATGATTGTTCTCCCAGCTGATGAATTGGCCACCTCGAGTAAACAAATTTTCCTAATCTTTCTGTTCAAGCGCCATCTAC” the value was 0.724; for “GATGATTGTTCTCCCAGCTGATGAATTTTTTGTATCGAGTAAACAAATTTTCCTAATCTTTCTGTTCAAGCGCCATCTAC”, 0.521; for “GATGATTGTTCTCCCAGCTGATGAATTAGAAGATTCGAGTAAACAAATTTTCCTAATCTTTCTGTTCAAGCGCCATCTAC”, 0.229.
Regarding “GATGATTGTTCTCCCAGCTGATGAATTATGTACCTCGAGTAAACAAATTTTCCTAATCTTTCTGTTCAAGCGCCATCTAC”, the binding signal (RPM ratio (pull-down/input)) is 1.89.
As for “GATGATTGTTCTCCCAGCTGATGAATTGACCATGTCGAGTAAACAAATTTTCCTAATCTTTCTGTTCAAGCGCCATCTAC”, the binding signal (RPM ratio (pull-down/input)) stood at 0.331.
For “GATGATTGTTCTCCCAGCTGATGAATTTGCCGCGTCGAGTAAACAAATTTTCCTAATCTTTCTGTTCAAGCGCCATCTAC” the value was 0.677.
In the case of “GATGATTGTTCTCCCAGCTGATGAATTCTCTAGGTCGAGTAAACAAATTTTCCTAATCTTTCTGTTCAAGCGCCATCTAC”, the binding signal (RPM ratio (pull-down/input)) came out at 0.189.
For “GATGATTGTTCTCCCAGCTGATGAATTCGATCCGTCGAGTAAACAAATTTTCCTAATCTTTCTGTTCAAGCGCCATCTAC”, the binding signal (RPM ratio (pull-down/input)) was 0.262.
The figure for “GATGATTGTTCTCCCAGCTGATGAATTCACCAACTCGAGTAAACAAATTTTCCTAATCTTTCTGTTCAAGCGCCATCTAC” is 0.308; for “GATGATTGTTCTCCCAGCTGATGAATTATGGGTCTCGAGTAAACAAATTTTCCTAATCTTTCTGTTCAAGCGCCATCTAC” it is 0.816; for “GATGATTGTTCTCCCAGCTGATGAATTCGTCAGTTCGAGTAAACAAATTTTCCTAATCTTTCTGTTCAAGCGCCATCTAC” it is 0.692.
On to “GATGATTGTTCTCCCAGCTGATGAATTTACGCAATCGAGTAAACAAATTTTCCTAATCTTTCTGTTCAAGCGCCATCTAC”, for which the binding signal (RPM ratio (pull-down/input)) came to 3.31.
For “GATGATTGTTCTCCCAGCTGATGAATTGATACCCTCGAGTAAACAAATTTTCCTAATCTTTCTGTTCAAGCGCCATCTAC” the value was 0.563.
The figure for “GATGATTGTTCTCCCAGCTGATGAATTTACCCGTTCGAGTAAACAAATTTTCCTAATCTTTCTGTTCAAGCGCCATCTAC” is 0.381; for “GATGATTGTTCTCCCAGCTGATGAATTGTTCGAATCGAGTAAACAAATTTTCCTAATCTTTCTGTTCAAGCGCCATCTAC” it is 0.36; for “GATGATTGTTCTCCCAGCTGATGAATTTACGAGATCGAGTAAACAAATTTTCCTAATCTTTCTGTTCAAGCGCCATCTAC” it is 0.339.
For the sequence “GATGATTGTTCTCCCAGCTGATGAATTCTATTCTTCGAGTAAACAAATTTTCCTAATCTTTCTGTTCAAGCGCCATCTAC”, the binding signal (RPM ratio (pull-down/input)) came out at 0.487.
The figure for “GATGATTGTTCTCCCAGCTGATGAATTGAGCAGATCGAGTAAACAAATTTTCCTAATCTTTCTGTTCAAGCGCCATCTAC” is 0.334.
Turning to “GATGATTGTTCTCCCAGCTGATGAATTGAAAGTCTCGAGTAAACAAATTTTCCTAATCTTTCTGTTCAAGCGCCATCTAC”, the binding signal (RPM ratio (pull-down/input)) is 0.284.
For “GATGATTGTTCTCCCAGCTGATGAATTCTGATAGTCGAGTAAACAAATTTTCCTAATCTTTCTGTTCAAGCGCCATCTAC” the value was 1.06; for “GATGATTGTTCTCCCAGCTGATGAATTTGGACATTCGAGTAAACAAATTTTCCTAATCTTTCTGTTCAAGCGCCATCTAC”, 0.997; for “GATGATTGTTCTCCCAGCTGATGAATTGTTTCCGTCGAGTAAACAAATTTTCCTAATCTTTCTGTTCAAGCGCCATCTAC”, 0.864.
As to “GATGATTGTTCTCCCAGCTGATGAATTTAACTGTTCGAGTAAACAAATTTTCCTAATCTTTCTGTTCAAGCGCCATCTAC”, the binding signal (RPM ratio (pull-down/input)) came out at 0.595.
Consider “GATGATTGTTCTCCCAGCTGATGAATTCGCGAATTCGAGTAAACAAATTTTCCTAATCTTTCTGTTCAAGCGCCATCTAC”, for which the binding signal (RPM ratio (pull-down/input)) is 0.868.
For the sequence “GATGATTGTTCTCCCAGCTGATGAATTGCGTACTTCGAGTAAACAAATTTTCCTAATCTTTCTGTTCAAGCGCCATCTAC”, the binding signal (RPM ratio (pull-down/input)) was 1.22.
With “GATGATTGTTCTCCCAGCTGATGAATTACACATCTCGAGTAAACAAATTTTCCTAATCTTTCTGTTCAAGCGCCATCTAC”, the binding signal (RPM ratio (pull-down/input)) came to 0.946.
The figure for “GATGATTGTTCTCCCAGCTGATGAATTCCTAAACTCGAGTAAACAAATTTTCCTAATCTTTCTGTTCAAGCGCCATCTAC” is 0.342; for “GATGATTGTTCTCCCAGCTGATGAATTATCTCCATCGAGTAAACAAATTTTCCTAATCTTTCTGTTCAAGCGCCATCTAC” it is 0.253; for “GATGATTGTTCTCCCAGCTGATGAATTGAACACATCGAGTAAACAAATTTTCCTAATCTTTCTGTTCAAGCGCCATCTAC” it is 0.649.
For “GATGATTGTTCTCCCAGCTGATGAATTAGCGGCGTCGAGTAAACAAATTTTCCTAATCTTTCTGTTCAAGCGCCATCTAC” the value was 0.611; for “GATGATTGTTCTCCCAGCTGATGAATTTGGTCCTTCGAGTAAACAAATTTTCCTAATCTTTCTGTTCAAGCGCCATCTAC”, 0.418; for “GATGATTGTTCTCCCAGCTGATGAATTAAGTGTGTCGAGTAAACAAATTTTCCTAATCTTTCTGTTCAAGCGCCATCTAC”, 2.

The record behind these values is PMC12820563.
